# Source: the supplement of paper PMC8728848
# The list shows a part of the results.
# B1: ZG-16 (Homo sapiens), O60844 (protein)
# chain: IQARSSSYSGEYGSGGGKRFSHSGNQLDGPITALRVRVNTYYIVGLQVRYGKVWSDYVGGRNGDLEEIFLHPGESVIQVSGKYKWYLKKLVFVTDKGRYLSFGKDSGTSFNAVPLHPNTVLRFISGRSGSLIDAIGLHWDVYPTSCSRCSRGSDDDDKAEPRGPTIKPCPPCKCPAPNLLGGPSVFIFPPKIKDVLMISLSPIVTCVVVDVSEDDPDVQISWFVNNVEVHTAQTQTHREDYNSTLRVVSALPIQHQDWMSGKEFKCKVNNKDLPAPIERTISKPKGSVRAPQVYVLPPPEEEMTKKQVTLTCMVTDFMPEDIYVEWTNNGKTELNYKNTEPVLDSDGSYFMYSKLRVEKKNWVERNSYSCSVVHEGLHNHHTTKSFSRTPGKRTYHHHHHHARKLTR
# Columns and labels:
# Assay in all cases: glycan array binding signal (z-score within array); higher = stronger binding
# Conditions in all cases: glycan notation: IUPAC condensed, linker removed
# [1] = molecular target: Gal(b1-3)[Fuc(a1-4)]GlcNAc
# Method in brief: (§1)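 Glycan array data were curated from 3228 arrays in the Consortium for Functional Glycomics database and kept only where the protein sequence was available. Glycan names were converted to IUPAC-condensed notation, and columns mapping to the same glycan were averaged. The binding signal is a within-array Z-score, averaged across arrays of the same protein sequence at different concentrations or buffers and across linkers. Negative Z-scores can be read as non-binding.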
# [2] = molecular target: Gal(b1-3)[Fuc(a1-4)]GlcNAc(b1-2)Man(a1-3)[Gal(b1-3)[Fuc(a1-4)]GlcNAc(b1-2)Man(a1-6)]Man(b1-4)GlcNAc(b1-4)GlcNAc
# Method in brief: as §1
# [3] = molecular target: Gal(b1-3)[Fuc(a1-4)]GlcNAc(b1-2)Man(a1-3)[Gal(b1-3)[Fuc(a1-4)]GlcNAc(b1-2)Man(a1-6)]Man(b1-4)GlcNAc(b1-4)[Fuc(a1-6)]GlcNAc
# Method in brief: as §1
# [4] = molecular target: Gal(b1-3)[Fuc(a1-4)]GlcNAc(b1-3)Gal(b1-3)[Fuc(a1-4)]GlcNAc
# Method in brief: as §1
# [5] = molecular target: Gal(b1-3)[Fuc(a1-4)]GlcNAc(b1-3)Gal(b1-4)GlcNAc
# Method in brief: as §1
# [6] = molecular target: Gal(b1-3)[Fuc(a1-4)]GlcNAc(b1-3)Gal(b1-4)[Fuc(a1-3)]GlcNAc
# Method in brief: as §1
# [7] = molecular target: Gal(b1-3)[GlcNAc(b1-6)]GalNAc
# Method in brief: as §1
# [8] = molecular target: Gal(b1-3)[Neu5Ac(a2-6)]GalNAc
# Method in brief: as §1
# [9] = molecular target: Gal(b1-3)[Neu5Ac(a2-6)]GlcNAc(b1-6)Gal(b1-4)Glc
# Method in brief: as §1
# [10] = molecular target: Gal(b1-3)[Neu5Ac(b2-6)]GalNAc
# Method in brief: as §1
# [11] = molecular target: Gal(b1-4)GalNAc(a1-3)[Fuc(a1-2)]Gal(b1-4)GlcNAc
# Method in brief: as §1
# [12] = molecular target: Gal(b1-4)GalNAc(b1-3)[Fuc(a1-2)]Gal(b1-4)GlcNAc
# Method in brief: as §1
# Gal(b1-4)Glc = molecular target: Gal(b1-4)Glc
# Method in brief: as §1
# Gal(b1-4)Glc6S = molecular target: Gal(b1-4)Glc6S
# Method in brief: as §1
# Gal(b1-4)GlcNAc = molecular target: Gal(b1-4)GlcNAc
# Method in brief: as §1
# [13] = molecular target: Gal(b1-4)GlcNAc(a1-6)Gal(b1-4)GlcNAc
# Method in brief: as §1
# [14] = molecular target: Gal(b1-4)GlcNAc(b1-2)Man(a1-3)Man(b1-4)GlcNAc(b1-4)GlcNAc
# Method in brief: as §1
# [15] = molecular target: Gal(b1-4)GlcNAc(b1-2)Man(a1-3)[Gal(b1-4)GlcNAc(b1-2)Man(a1-6)]Man(b1-4)GlcNAc(b1-4)GlcNAc
# Method in brief: as §1
# [16] = molecular target: Gal(b1-4)GlcNAc(b1-2)Man(a1-3)[Gal(b1-4)GlcNAc(b1-2)Man(a1-6)]Man(b1-4)GlcNAc(b1-4)[Fuc(a1-6)]GlcNAc
# Method in brief: as §1
# [17] = molecular target: Gal(b1-4)GlcNAc(b1-2)Man(a1-3)[GlcNAc(b1-2)Man(a1-6)]Man(b1-4)GlcNAc(b1-4)GlcNAc
# Method in brief: as §1
# [18] = molecular target: Gal(b1-4)GlcNAc(b1-2)Man(a1-3)[Man(a1-6)]Man(b1-4)GlcNAc(b1-4)GlcNAc
# Method in brief: as §1
# [19] = molecular target: Gal(b1-4)GlcNAc(b1-2)Man(a1-6)Man(b1-4)GlcNAc(b1-4)GlcNAc
# Method in brief: as §1
# [20] = molecular target: Gal(b1-4)GlcNAc(b1-2)Man(a1-6)[GlcNAc(b1-2)Man(a1-3)]Man(b1-4)GlcNAc(b1-4)GlcNAc
# Method in brief: as §1
# [21] = molecular target: Gal(b1-4)GlcNAc(b1-2)Man(a1-6)[Man(a1-3)]Man(b1-4)GlcNAc(b1-4)GlcNAc
# Method in brief: as §1
# [22] = molecular target: Gal(b1-4)GlcNAc(b1-2)[Gal(b1-4)GlcNAc(b1-4)]Man(a1-3)[Gal(b1-4)GlcNAc(b1-2)Man(a1-6)]Man(b1-4)GlcNAc(b1-4)GlcNAc
# Method in brief: as §1
# [23] = molecular target: Gal(b1-4)GlcNAc(b1-2)[Gal(b1-4)GlcNAc(b1-4)]Man(a1-3)[Gal(b1-4)GlcNAc(b1-2)[Gal(b1-4)GlcNAc(b1-6)]Man(a1-6)]Man(b1-4)GlcNAc(b1-4)GlcNAc
# Method in brief: as §1
# [24] = molecular target: Gal(b1-4)GlcNAc(b1-3)Gal(b1-3)GlcNAc
# Method in brief: as §1
# [25] = molecular target: Gal(b1-4)GlcNAc(b1-3)Gal(b1-4)Glc
# Method in brief: as §1
# [26] = molecular target: Gal(b1-4)GlcNAc(b1-3)Gal(b1-4)GlcNAc
# Method in brief: as §1
# [27] = molecular target: Gal(b1-4)GlcNAc(b1-3)Gal(b1-4)GlcNAc(b1-3)Gal(b1-4)GlcNAc
# Method in brief: as §1
# [28] = molecular target: Gal(b1-4)GlcNAc(b1-3)Gal(b1-4)[Fuc(a1-3)]GlcNAc(b1-3)Gal(b1-4)[Fuc(a1-3)]GlcNAc
# Method in brief: as §1
# [29] = molecular target: Gal(b1-4)GlcNAc(b1-3)GalNAc
# Method in brief: as §1
# [30] = molecular target: Gal(b1-4)GlcNAc(b1-3)[Gal(b1-4)GlcNAc(b1-6)]Gal(b1-4)GlcNAc
# Method in brief: as §1
# [31] = molecular target: Gal(b1-4)GlcNAc(b1-3)[Gal(b1-4)GlcNAc(b1-6)]GalNAc
# Method in brief: as §1
# [32] = molecular target: Gal(b1-4)GlcNAc(b1-3)[GlcNAc(b1-6)]Gal(b1-4)GlcNAc
# Method in brief: as §1
# [33] = molecular target: Gal(b1-4)GlcNAc(b1-6)Gal(b1-4)GlcNAc
# Method in brief: as §1
# [34] = molecular target: Gal(b1-4)GlcNAc(b1-6)GalNAc
# Method in brief: as §1
binder,measurement,setting,value
B1,glycan array binding signal (z-score),[1],-0.207
same,glycan array binding signal (z-score),[2],-0.203
same,glycan array binding signal (z-score),[3],-0.202
same,glycan array binding signal (z-score),[4],-0.204
same,glycan array binding signal (z-score),[5],-0.207
same,glycan array binding signal (z-score),[6],-0.232
same,glycan array binding signal (z-score),[7],-0.188
same,glycan array binding signal (z-score),[8],-0.184
same,glycan array binding signal (z-score),[9],-0.169
same,glycan array binding signal (z-score),[10],-0.126
same,glycan array binding signal (z-score),[11],-0.173
same,glycan array binding signal (z-score),[12],-0.232
same,glycan array binding signal (z-score),Gal(b1-4)Glc,-0.208
same,glycan array binding signal (z-score),Gal(b1-4)Glc6S,-0.199
same,glycan array binding signal (z-score),Gal(b1-4)GlcNAc,-0.207
same,glycan array binding signal (z-score),[13],-0.191
same,glycan array binding signal (z-score),[14],-0.114
same,glycan array binding signal (z-score),[15],0.105
same,glycan array binding signal (z-score),[16],-0.192
same,glycan array binding signal (z-score),[17],-0.172
same,glycan array binding signal (z-score),[18],-0.146
same,glycan array binding signal (z-score),[19],-0.199
same,glycan array binding signal (z-score),[20],-0.117
same,glycan array binding signal (z-score),[21],-0.126
same,glycan array binding signal (z-score),[22],-0.166
same,glycan array binding signal (z-score),[23],-0.221
same,glycan array binding signal (z-score),[24],0.136
same,glycan array binding signal (z-score),[25],-0.14
same,glycan array binding signal (z-score),[26],-0.144
same,glycan array binding signal (z-score),[27],0.095
same,glycan array binding signal (z-score),[28],-0.192
same,glycan array binding signal (z-score),[29],-0.21
same,glycan array binding signal (z-score),[30],-0.197
same,glycan array binding signal (z-score),[31],-0.184
same,glycan array binding signal (z-score),[32],-0.131
same,glycan array binding signal (z-score),[33],-0.189
same,glycan array binding signal (z-score),[34],-0.177
